Test results published in ChEMBL document CHEMBL4888484, “Replenishing the malaria drug discovery pipeline: Screening and hit evaluation of the MMV Hit Generation Library 1 (HGL1) against asexual blood stage Plasmodium falciparum ,using a nano luciferase reporter read-out” (2022).
Hit rate of the full screen: of about 150,000 compounds, about 540 (0.36%) showed an effect of 50% or more. Some of the results follow.

Test system: Plasmodium falciparum
Assay: Primary screen in NF54 nanoGlo assay, in single point, at 2uM, 72h; a lower Z score goes with more inhibition
Format: functional, Erythrocyte
Details: timepoint 72 hour

| Compound | % Inhibition [%] | Z score |
| --- | --- | --- |
| O=C(c1ccccc1-n1cnnn1)N1CCN(Cc2ccc(-c3cccc(Cl)c3)s2)CC1 | -32 | 3.73 |
| CC(=O)C1CCCCN1S(=O)(=O)C[C@]12CC[C@@H](CC1=O)C2(C)C (stereo partly specified) | 4 | -0.8 |
| Cc1cc2n(n1)CCCN2CC(=O)Nc1c(C)cccc1C | -10 | 1.78 |
| COc1ccc(N2CCN(C(=O)c3ccc4cn[nH]c4c3)CC2)cc1 | -10 | 1.7 |
| CCc1nnc(CN[C@]2(C(F)(F)F)CCc3ccccc32)o1 | -3 | 0.28 |
| Cc1n[nH]c(C)c1CNCCOc1ccccc1 | -5 | 0.7 |
| CC1CN(CC(O)CN2CCc3cncnc3C2)CC(C)O1 (stereo unspecified) | -3 | 0.47 |
| CCc1ccc2c(c1)[C@]1(C(=O)N2)N2CCC[C@H]2[C@@H](C(=O)c2cccc(OC)c2)[C@]12C(=O)Nc1ccccc12 | -16 | 1.42 |
| CC1(CNC(=O)c2[nH]ccc2C2CC2)CCOCC1 | 28 | -3.17 |
| CCC1C(C)CCN1C(=O)CCCCN1C(=O)c2ccccc2C1=O (stereo unspecified) | -5 | 0.59 |
| Cc1nn(C)cc1-c1csc(CC(F)(F)F)n1 | 15 | -1.77 |
| Cc1nc2ccccc2c(C)c1CC(=O)N(Cc1nnc(-c2ccc(Cl)cc2)o1)C(C)C | -15 | 2.46 |
| Cc1cccc(OC[C@H](C)NC(=O)N2CCOCC2)c1 | 4 | -0.5 |
| C=C(C)CN1C(=O)N[C@@](CC)(C2CCN(C(=O)Cc3c[nH]c4ccccc34)CC2)C1=O | 6 | -0.73 |
| O=C(COC[C@H]1CCCO1)Nc1cnc(C(F)(F)F)nc1 | 3 | -0.52 |
| Cn1ccnc1CN(CCO)C(=O)N[C@H]1CCC[C@H]1Cc1ccc(F)cc1 | -2 | 0.37 |
| CC[C@H]1CCCN1C(=O)c1cnc(Cc2c(Cl)cccc2Cl)nc1O | -14 | 1.8 |
| O=C(NC1CCCCCCC1)c1cc(O)nc2ccccc12 | -18 | 3.55 |
| c1cc(-c2cnc3nncn3c2)n2nccc2c1 | -8 | 0.83 |
| COc1cc(OC)cc(C(=O)N2C[C@H](c3nc(-c4ccncc4)no3)[C@@H](C)C2)c1 | -1 | 0.07 |
| O=C(c1cc(C2CC2)n[nH]1)N1CCC(Oc2ccc(Cl)cc2)CC1 | -11 | 2 |
| Cc1ccc(-c2nc([C@H]3CC(=O)N(c4ccc(F)c(Cl)c4)C3)no2)c(C)c1 | -12 | 1.12 |
| CCC1(C(=O)N2CCC[C@H](CCC(=O)O)C2)CCC1 | -5 | 0.98 |
| O=C(O)C1CC1C(=O)NCCCc1c[nH]c2ccccc12 (stereo unspecified) | -25 | 2.33 |
| CCCc1cc(CN(C)C(=O)c2cnc(N3CCCCC3)nc2C)n[nH]1 | -20 | 1.93 |
| COC(Cn1ccc(=O)c2cc(Oc3ccccc3)ccc21)C1CCOC1 (stereo unspecified) | -12 | 1.53 |
| CNS(=O)(=O)CC(=O)Nc1ccc(F)c(C(=O)OC)c1C | -8 | 0.98 |

| Compound | % Inhibition [%] | Z score |
| --- | --- | --- |
| Cc1cccc(-c2nc3c(c(=O)[nH]2)CN(C(=O)c2cccc4ccccc24)CC3)c1 | 2 | -0.32 |
| Cc1nnc(CN2CCC[C@H](c3n[nH]c(-c4ccccc4)n3)C2)s1 | -10 | 1.48 |
| O=C(CN1CCC(C(=O)N2CCCC2)CC1)Nc1cc(Cl)ccc1Cl | -7 | 0.79 |
| Cc1nn(C)c2nc(N3CCN(C4CCCC4)CC3)sc12 | -3 | 0.42 |
| Nc1c(Cl)cc(S(=O)(=O)Nc2noc(C3CC3)n2)cc1Cl | -5 | 0.88 |
| CCc1ccc(NC(=O)Cn2ncn3nc4c(c3c2=O)CCCC4)cc1 | 1 | -0.12 |
| CN1C(=O)[C@H]2CN(C(=O)Cn3ccc4ccccc4c3=O)C[C@H]2C1=O | 5 | -0.79 |
| Cc1csc(CNC(=O)c2ccccn2)n1 | -4 | 0.5 |
| CN1C(=O)C(C)(C)c2cc(S(=O)(=O)NCC3CCC(C(=O)NC4CCCCC4)CC3)ccc21 (stereo unspecified) | -9 | 1.41 |
| C[C@@H](Cn1cncn1)NC(=O)Nc1scnc1C(C)(C)C | -8 | 0.93 |
| CCc1ccc(-c2cnc3ccccc3n2)cc1NC(=O)[C@@H](NS(=O)(=O)c1ccccc1)C(C)C | 4 | -0.61 |
| CS(=O)(=O)N1CCN(C(=O)Cc2ccn[nH]2)Cc2ccccc21 | 5 | -0.97 |
| c1nc(N2CCC3(CCO3)CC2)c2cc[nH]c2n1 | -2 | 0.44 |
| COc1ccccc1CNC(=O)c1c(OCC(C)C)cc(=O)n2c1CCCCC2 | -4 | 0.58 |
| O=C(NCCc1ccco1)c1ccc(CN2C(=O)CCn3nc(-c4ccccc4)cc32)cc1 | 10 | -1.13 |
| N#CCC1(COc2ccc(F)cc2C(=O)c2ccccc2)CC1 | 5 | -1 |
| COc1cccc(-c2nc(Cn3nc(C)c4c(C)onc4c3=O)c(C)o2)c1OC | -7 | 0.73 |
| Cc1cnc(NC(=O)Cn2ncc(=O)c3ccccc32)s1 | 7 | -1.41 |
| Cc1cc(NC(=O)CCc2cccs2)on1 | 8 | -1.56 |
| Cc1cc(NC(=O)Cn2ccc(-c3ccc(C)s3)n2)n(C)n1 | -9 | 1.28 |
| CS(=O)(=O)N(CC(F)(F)F)C1CCN(Cc2coc3ccccc23)CC1 | -5 | 0.7 |
| C[C@@H](C(=O)OC(C)(C)C)N(C(=O)c1cocn1)c1ccc(F)cc1 | -10 | 1.34 |
| CC(C)(C)[C@H](CC1CCCCC1)NC(=O)CCN | -29 | 3.41 |
| CNc1cc([C@H]2C[C@H](NC(=O)Cc3ccccc3F)C2)nc(COC)n1 | -5 | 0.88 |
| C=C(CC(=O)Nc1ccc(F)cc1F)C(=O)Nc1ccc(F)cc1F | 33 | -3.76 |
| CN(CCn1cccn1)c1cc(N2CCCC2)ncn1 | -2 | 0.41 |
